Read-outs that look alike come from different tables or passages of the source. Starred links: 1 amine or outer side, 2 acyl side, 3 side chain; linkers in the order of their positions; H or OH if unused. Non-standard residues stand in square brackets, D forms with d. Residues, ends and D or L forms follow the SMILES beside them. ξ: configuration not given here. *: point of attachment. Benzoyl(2-COOH-4,5-Cl2) = O=C(O)c1cc(Cl)c(Cl)cc1C(=O)*; X1 = O=C(c1ccc(N2CCN([*:1])CC2)nc1)[*:2]; dPhg(2-F) = N[C@@H](C(=O)O)c1ccccc1F; Gly(NCH2CH2Ph) = O=C(O)CNCCc1ccccc1; Isobutyloxycarbonyl = CC(C)COC(=O)*; X2 = O=C(C(=O)[*:2])C(CC1CC1)N[*:1]; Cyclopentylacetyl = O=C(CC1CCCC1)*; Gly(cPent) = N[C@H](C(=O)O)C1CCCC1; NMeAla(cPr) = CN[CH](CC1CC1)C(=O)O; X4 = CCCC(N[*:1])C(=O)C(=O)[*:2]; hPhe = N[C@@H](CCc1ccccc1)C(=O)O; Ala(cPr) = N[CH](CC1CC1)C(=O)O; X29 = O=C(O)Cc1ccc(CC(=O)*)cc1; X6 = O=C(O)C(CCC(=O)*)c1ccccc1; AllylGly = C=CC[C@H](N)C(=O)O; ξNMePhg = CNC(C(=O)O)c1ccccc1; Chg = N[CH](C(=O)O)C1CCCCC1; Phg = N[CH](C(=O)O)c1ccccc1; Salicyloyl = O=C(c1ccccc1O)*; Tle = CC(C)(C)[C@H](N)C(=O)O; X21 = CC1C2CCC(C2)C1COC(=O)*; ξAla(cPr) = NC(CC1CC1)C(=O)O; Ethoxycarbonyl = CCOC(=O)*; X27 = CC(C)(C)C#CCOC(=O)*; ξPhg = NC(C(=O)O)c1ccccc1; Boc = CC(C)(C)OC(=O)*; ξL = CC(C)CC(N)C(=O)O; OBn = c1ccc(CO*)cc1; X20 = CC#CCOC(=O)*; OtBu = CC(C)(C)O*; Ms = CS(=O)(=O)*
Target: Recombinant heterodimeric HCV NS3/NS4A protease (strain 1a) (Hepatitis C virus genotype 1a, UniProt P27958)
Experiment: biochemical
Description: Spectrophotometric Assay: Spectrophotometric assay for the HCV serine protease was performed on the inventive compounds by following the procedure described by R. Zhang et al, Analytical Biochemistry, 270 (1999) 268-275, the disclosure of which is incorporated herein by reference. The assay based on the proteolysis of chromogenic ester substrates is suitable for the continuous monitoring of HCV NS3 protease activity. The substrates were derived from the P side of the NS5A-NS5B junction sequence (Ac-DTEDVVX(Nva), where X=A or P) whose C-terminal carboxyl groups were esterified with one of four different chromophoric alcohols (3- or 4-nitrophenol, 7-hydroxy-4-methyl-coumarin, or 4-phenylazophenol). […] Materials and Methods:
Materials: Chemical reagents for assay related buffers were obtained from Sigma Chemical Company (St. Louis, Mo.). Reagents for peptide synthesis were from Aldrich Chemicals, Novabiochem (San Diego, Calif.), Applied Biosystems (Foster City, Calif.) and Perseptive Biosystems (Framingham, Mass.). Peptides were synthesized manually or on an automated ABI model 431A synthesizer (from Applied Biosystems). UV/VIS Spectrometer model LAMBDA 12 was from Perkin Elmer (Norwalk, Conn.) and 96-well UV plates were obtained from Corning (Corning, N.Y.). The prewarming block was from USA Scientific (Ocala, Fla.) and the 96-well plate vortexer was from Labline Instruments (Melrose Park, Ill.). A Spectramax Plus microtiter plate reader with monochrometer was obtained from Molecular Devices (Sunnyvale, Calif.).
Protein concentrations were determined by the Biorad dye method using recombinant HCV protease standards previously quantified by amino acid analysis. Prior to assay initiation, the enzyme storage buffer (50 mM sodium phosphate pH 8.0, 300 mM NaCl, 10% glycerol, 0.05% lauryl maltoside and 10 mM DTT) was exchanged for the assay buffer (25 mM MOPS pH 6.5, 300 mM NaCl, 10% glycerol, 0.05% lauryl maltoside, 5 μM EDTA and 5 μM DTT) utilizing a Biorad Bio-Spin P-6 prepacked column.
Substrate Synthesis and Purification: The synthesis of the substrates was done as reported by R. Zhang et al, (ibid.) and was initiated by anchoring Fmoc-Nva-OH to 2-chlorotrityl chloride resin using a standard protocol (K. Barlos et al, Int. J. Pept. Protein Res., 37 (1991), 513-520). The peptides were subsequently assembled, using Fmoc chemistry, either manually or on an automatic ABI model 431 peptide synthesizer. […] The combined filtrate and DCM wash was evaporated azeotropically (or repeatedly extracted by aqueous Na2CO3 solution) to remove the acid used in cleavage. The DCM phase was dried over Na2SO4 and evaporated.
The ester substrates were assembled using standard acid-alcohol coupling procedures (K. Holmber et al, Acta Chem. Scand., B33 (1979) 410-412). Peptide fragments were dissolved in anhydrous pyridine (30-60 mg/ml) to which 10 molar equivalents of chromophore and a catalytic amount (0.1 eq.) of para-toluenesulfonic acid (pTSA) were added. Dicyclohexylcarbodiimide (DCC, 3 eq.) was added to initiate the coupling reactions. […] Pyridine solvent was evaporated under vacuum and further removed by azeotropic evaporation with toluene. The peptide ester was deprotected with 95% TFA in DCM for two hours and extracted three times with anhydrous ethyl ether to remove excess chromophore. The deprotected substrate was purified by reversed phase HPLC on a C3 or C8 column with a 30% to 60% acetonitrile gradient (using six column volumes).

[1] = HCV protease continuous assay, Table 1, read-out: Ki* Range
[2] = Table 3, solid phase compounds, read-out: Ki* CLASS

Row | SMILES | Ki [1] [µM] | also measured
1 | CCOC(=O)N1CCN(c2ccc(C(=O)NC(C(=O)NC(CC3CC3)C(=O)NC(CC3CC3)C(=O)C(=O)NCC(=O)NC(C(=O)O)c3ccccc3)C3CCCCC3)cn2)CC1 (stereo not drawn) [Example 108] (Ethoxycarbonyl-[X1][Chg][Ala(cPr)][X2]G[Phg]-OH; configuration not given here) | 0.101 to 1 | –
2 | CCCC(NC(=O)[C@H](CC(C)C)NC(=O)[C@@H](NC(=O)OC(C)(C)C)C1CCCCC1)C(=O)C(=O)NCC(=O)N[C@@H](C(=O)OC)c1ccccc1F (stereo partly drawn) [Example 48] (Boc-[Chg]L[X4]G[dPhg(2-F)]-OMe) | 0.101 to 1 | –
3 | CCCC(NC(=O)[C@H](CC(C)C)NC(=O)[C@@H](NC(=O)OCC(C)C)C1CCN(C(=O)c2ccc(C(=O)O)cc2)CC1)C(=O)C(=O)NCC(=O)N[C@H](C(=O)O)c1ccccc1 (stereo partly drawn) [Example 52] | 0.101 to 1 | –
4 | CCCC(NC(=O)[C@H](CC(C)C)NC(=O)[C@@H](NC(=O)OCC(C)C)C1CCN(C(=O)OCC[Si](C)(C)C)CC1)C(=O)C(=O)NCC(=O)N[C@H](C(=O)O)c1ccccc1 (stereo partly drawn) [Example 44] | > 1 | –
5 | CCCC(NC(=O)C(CC1OCCCO1)NC(=O)C(NC(=O)OCC(C)C)C1CCCCC1)C(=O)C(=O)NCC(=O)NC(C(=O)O)c1ccccc1 (stereo not drawn) [Example 64] | 0.101 to 1 | –
6 | C=CC[C@H](NC(=O)[C@@H](NC(=O)OCC(C)C)C1CCCCC1)C(=O)NC(CCC)C(=O)C(=O)NCC(=O)N[C@H](C(=O)O)c1ccccc1 (stereo partly drawn) [Example 34] (Isobutyloxycarbonyl-[Chg][AllylGly][X4]G[Phg]-OH) | 0.101 to 1 | –
7 | CC(C)COC(=O)N[C@H](C(=O)N[C@@H](CC(C)C)C(=O)NC(CSC(c1ccccc1)(c1ccccc1)c1ccccc1)C(=O)C(=O)NCC(=O)N[C@H](C(=O)OC(C)(C)C)c1ccccc1)C1CCCCC1 (stereo partly drawn) [Example 36] | > 1 | –
8 | CCCC(NC(=O)[C@H](CC(C)C)NC(=O)[C@@H](NC(=O)c1cc(Cl)c(Cl)cc1C(=O)O)C1CCCC1)C(=O)C(=O)NCC(=O)N[C@H](C(=O)O)c1ccccc1 (stereo partly drawn) [Example 76] ({Benzoyl(2-COOH-4,5-Cl2)}-[Gly(cPent)]L[X4]G[Phg]-OH) | 0.101 to 1 | –
9 | CCCC(NC(=O)[C@H](CC(C)C)NC(=O)[C@@H](NC(=O)OCC(C)C)C1CCN(C(=O)CNC(C)=O)CC1)C(=O)C(=O)NCC(=O)N[C@H](C(=O)O)c1ccccc1 (stereo partly drawn) [Example 58] | > 1 | –
10 | CC(C)COC(=O)NC(C(=O)N(C)C(CC1CC1)C(=O)NC(CC1CC1)C(=O)C(=O)NCC(=O)NC(C(=O)O)c1ccccc1)C1CCCCC1 (stereo not drawn) [Example 116] (Isobutyloxycarbonyl-[Chg][NMeAla(cPr)][X2]G[Phg]-OH; configuration not given here) | – | Ki: 0.101 to 1 µM
11 | CCCC(NC(=O)[C@H](CC(C)C)NC(=O)[C@@H](NC(=O)c1cc(Cl)c(Cl)cc1C(=O)O)C1CC[S+]([O-])CC1)C(=O)C(=O)NCC(=O)N[C@H](C(=O)O)c1ccccc1 (stereo partly drawn) [Example 81] | 0.101 to 1 | –
12 | CCCC(NC(=O)[C@H](CC(C)C)NC(=O)[C@@H](NC(=O)OCC(C)C)C1CCCC1)C(=O)C(=O)NCC(=O)N[C@H](C(=O)O)c1ccccc1 (stereo partly drawn) [Example 72] (Isobutyloxycarbonyl-[Gly(cPent)]L[X4]G[Phg]-OH) | 0.101 to 1 | –
13 | CCCC(NC(=O)[C@H](CC(C)C)NC(=O)[C@@H](NC(=O)C(CC(C)C)NS(C)(=O)=O)C1CCCC1)C(=O)C(=O)NCC(=O)N[C@H](C(=O)O)c1ccccc1 (stereo partly drawn) [Example 73] (Ms-[ξL][Gly(cPent)]L[X4]G[Phg]-OH) | < 0.1 | –
14 | CCCC(NC(=O)C(CC1SCCS1)NC(=O)C(NC(=O)OCC(C)C)C1CCCCC1)C(=O)C(=O)NCC(=O)NC(C(=O)O)c1ccccc1 (stereo not drawn) [Example 43] | < 0.1 | –
15 | CCCC(NC(=O)[C@H](CC(C)C)NC(=O)[C@@H](NC(=O)OCC1C2CCC(C2)C1C)C1CCCCC1)C(=O)C(=O)NCC(=O)N[C@H](C(N)=O)c1ccccc1 (stereo partly drawn) [Example 2] (X21-[Chg]L[X4]G[Phg]-NH2) | 0.101 to 1 | –
16 | CCCC(NC(=O)[C@H](CC(C)C)NC(=O)[C@@H](NC(=O)OC(C)(C)C)C1CCCCC1)C(=O)C(=O)NCC(=O)N[C@H](C(=O)O)c1ccccc1 (stereo partly drawn) [Example 11] (Boc-[Chg]L[X4]G[Phg]-OH) | < 0.1 | –
17 | CCCC(NC(=O)C(CC1OCCO1)NC(=O)C(NC(=O)OCC(C)C)C1CCCCC1)C(=O)C(=O)NCC(=O)NC(C(=O)O)c1ccccc1 (stereo not drawn) [Example 66] | – | Ki: 0.101 to 1 µM
18 | CCCC(NC(=O)[C@H](CC(C)C)NC(=O)[C@@](C)(NC(=O)CC(C)(C)C)C1CCCCC1)C(=O)C(=O)NCC(=O)N[C@H](C(=O)O)c1ccccc1 (stereo partly drawn) [Example 83] | > 1 | –
19 | CCCC(NC(=O)CN(CCc1ccccc1)C(=O)[C@@H](NC(=O)CC1CCCC1)C1CCCCC1)C(=O)C(=O)NCC(=O)N[C@H](C(N)=O)c1ccccc1 (stereo partly drawn) (Cyclopentylacetyl-[Chg][Gly(NCH2CH2Ph)][X4]G[Phg]-NH2) | – | Ki [2]: 0.101 to 1 µM
20 | CCCC(NC(=O)[C@H](CC(C)C)NC(=O)[C@@H](NC(=O)Cc1ccc(CC(=O)O)cc1)C1CCCCC1)C(=O)C(=O)NCC(=O)N[C@H](C(=O)O)c1ccccc1 (stereo partly drawn) (X29-[Chg]L[X4]G[Phg]-OH) | – | Ki [2]: 0.101 to 1 µM
21 | CC(C)(C)C#CCOC(=O)NC(C(=O)NC(CC1CC1)C(=O)NC(CC1CC1)C(=O)C(=O)NCC(=O)NC(C(=O)O)c1ccccc1)C1CCCCC1 (stereo not drawn) [Example 125] (X27-[Chg][Ala(cPr)][X2]G[Phg]-OH; configuration not given here) | < 0.1 | –
22 | CCCC(NC(=O)[C@H](CC(C)C)NC(=O)[C@@H](NC(=O)OC(C)(C)C)C1CCCCC1)C(=O)C(=O)NCC(=O)N(C)C(C(=O)OC)c1ccccc1 (stereo partly drawn) [Example 29] (Boc-[Chg]L[X4]G[ξNMePhg]-OMe) | > 1 | –
23 | CC(C)(C)OC(=O)C(NC(=O)CNC(=O)C(=O)C(CC1CC1)NC(=O)C(CC1CC1)NC(=O)C(NC(=O)c1ccccc1O)C1CCCCC1)c1ccccc1 (stereo not drawn) [Example 133] (Salicyloyl-[Chg][Ala(cPr)][X2]G[Phg]-OtBu; configuration not given here) | – | Ki: 0.101 to 1 µM
24 | CC#CCOC(=O)NC(C(=O)NC(CC1CC1)C(=O)NC(CC1CC1)C(=O)C(=O)NCC(=O)NC(C(=O)OC(C)(C)C)c1ccccc1)C1CCCCC1 (stereo not drawn) [Example 123] (X20-[Chg][Ala(cPr)][X2]G[Phg]-OtBu; configuration not given here) | > 1 | –
25 | CC(C)COC(=O)N[C@H](C(=O)NC(CC1CC1)C(=O)NC(CC1CC1)C(=O)C(=O)NCC(=O)NC(C(=O)O)c1ccccc1)C(C)(C)C (stereo partly drawn) [Example 122] (Isobutyloxycarbonyl-[Tle][ξAla(cPr)][X2]G[ξPhg]-OH) | < 0.1 | –
26 | CCCC(NC(=O)[C@H](CCc1ccccc1)NC(=O)[C@@H](NC(=O)OC(C)(C)C)C1CCCCC1)C(=O)C(=O)NCC(=O)N[C@H](C(N)=O)c1ccccc1 (stereo partly drawn) [Example 4] (Boc-[Chg][hPhe][X4]G[Phg]-NH2) | > 1 | –
27 | CCCC(NC(=O)C(CC1OCCO1)NC(=O)C(NC(=O)OCC(C)C)C1CCCCC1)C(=O)C(=O)NCC(=O)NC(C(=O)OC(C)(C)C)c1ccccc1 (stereo not drawn) [Example 65] | > 1 | –
28 | CCCC(NC(=O)[C@H](CC(C)C)NC(=O)[C@@H](NC(=O)CCC(C(=O)O)c1ccccc1)C1CCCCC1)C(=O)C(=O)NCC(=O)N[C@H](C(=O)OCc1ccccc1)c1ccccc1 (stereo partly drawn) [Example 17] (X6-[Chg]L[X4]G[Phg]-OBn) | 0.101 to 1 | –
29 | CCCC(NC(=O)[C@H](CC(C)C)NC(=O)[C@@H](NC(=O)OCC(C)C)C1CCCCC1)C(=O)C(=O)NCC(=O)N[C@H](C(=O)OC(C)(C)C)c1ccccc1 (stereo partly drawn) [Example 69] (Isobutyloxycarbonyl-[Chg]L[X4]G[Phg]-OtBu) | 0.101 to 1 | –
30 | CCCC(NC(=O)[C@H](CC1CO1)NC(=O)C(NC(=O)OCC(C)C)C1CCCCC1)C(=O)C(=O)NCC(=O)NC(C(=O)OC(C)(C)C)c1ccccc1 (stereo partly drawn) [Example 92] | > 1 | –

— patent US7595299B2, “Peptides as NS3-serine protease inhibitors of hepatitis C virus” (priority 2000, dated 2009)
